Assay results reported in PubChem BioAssay AID2100 (National Center for Advancing Translational Sciences (NCATS), 2009).
Out of some 300,000 compounds screened, about 1,200 (0.4%) were called active. This list was built around the results that the source calls inconclusive (neither active nor inactive); the mix of calls is not that of the screen. The call rests on the fitted dose curve; in most records, active means well fitted inhibition curve with a large enough effect; inconclusive means small, poorly fitted or top-dose-only effect, or another doubt; inactive means no such curve, though single readings can be large or run the other way. A potency beside an inconclusive call is a rough fit, not a confirmed value.

target: Lysosomal alpha-glucosidase (Homo sapiens) (UniProt P10253); assay: qHTS Assay for Inhibitors and Activators of Human alpha-Glucosidase Cleavage of Glycogen; details: recombinant GAA, glycogen substrate, Amplex Red glucose oxidase fluorescence; activity change, negative = inhibition: at 76.4 µM (top of the series) unless noted;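 on activity change, negative = inhibition: 0% = full enzyme reaction and -100% = no-enzyme basal signal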
In short: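 Recombinant enzyme (4 nM final) with compounds titrated up to 77 uM and bovine liver glycogen (30 ug) in citrate pH 5.0, 0.01% Tween-20, 37 C 40 min. Released glucose detected by Amplex Red/glucose oxidase (Ex 573/Em 610); AC50 from Hill fits.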
Potency means the concentration at half of the fitted maximal effect.

Row | SMILES | activity change, negative = inhibition | Potency
1 | COc1ccc(NS(=O)(=O)c2cc(C)ccc2C)cc1 | inactive: -12.1% | –
2 | COc1ccc(NC(=S)N2CCN(c3ccc([N+](=O)[O-])cc3)CC2)cc1OC | – | inconclusive: 39.5 µM [inhibitor, single point]
3 | CCCCC(=O)Nc1ccc(C(=O)NNC(=S)NC(=O)c2ccco2)cc1 | – | inconclusive: 28.2 µM [inhibitor, single point]
4 | Fc1c(F)c(C(F)(F)F)c(F)c(F)c1N/N=C\c1cccs1 | – | inconclusive: 28 µM [inhibitor, single point]
5 | CC(C)(C)C1CCC(=NNc2ccc(S(N)(=O)=O)cc2[N+](=O)[O-])CC1 (centres undefined) | – | inconclusive: 22.4 µM [inhibitor, partial curve]
6 | Cc1cccc(COCC(CC(C)C)N2CCN(C(=O)c3ccc(C(C)(C)C)cc3)CCC2=O)c1 (centres undefined) | – | inconclusive: 15.8 µM [inhibitor, partial curve]
7 | COc1ccc(NCCNc2ccc(OC)cc2)cc1 | – | active: 7.88 µM
8 | COc1ccc(NC2=C(C(C)=O)C(c3ccc(OC)cc3)C(C(C)=O)C(C)(O)C2)cc1 (centres undefined) | inactive: -26.3% | –
9 | O=[N+]([O-])c1cccc(-c2csc(Nc3ccccc3)n2)c1 | – | inconclusive: 31.6 µM [inhibitor, single point]
10 | Cc1ccc2nc(-c3ccc(N4C(=O)CC(N5CCN(CCO)CC5)C4=O)cc3)sc2c1 (centres undefined) | inactive: -4.99% | –
11 | O=C1c2ccccc2NC(c2ccco2)N1O (centres undefined) | – | inconclusive: 39.8 µM [inhibitor, partial curve]
12 | O=C(NC1CCCCC1)C(c1ccc(O)c(O)c1)N(C(=O)Cn1nnc2ccccc21)c1cccc(O)c1 (centres undefined) | – | inconclusive: 12.6 µM [inhibitor, partial curve]
13 | Cc1ccc(NC(=O)CN2C(=O)COc3ccc(S(=O)(=O)N4CCCCCC4)cc32)cc1Cl | inactive: -4.68% [at 76.3 µM] | –
14 | COc1cccc(-n2sc3c(c2=S)-c2cc(OC)ccc2NC3(C)C)c1 | – | active: 39.8 µM
15 | CCOC(=O)c1c(N)sc2c1CCC(CC)C2 (centres undefined) | – | inconclusive: 28.2 µM [inhibitor, partial curve, poor fit]
16 | COc1ccc(CNC(=O)c2cc3cc4ccc(C)cc4nc3o2)cc1 | – | inconclusive: 28.2 µM [inhibitor, partial curve]
17 | S=c1[nH]nc(Nc2ccccc2)s1 | – | inconclusive: 39.8 µM [inhibitor, partial curve]
18 | Clc1cccc(CN2CCc3c([nH]c4ccccc34)C2)c1 | – | inconclusive: 35.5 µM [activator, single point]
19 | O=C(c1ccc(F)cc1F)N1CCC(c2nc(-c3ccc(S(=O)(=O)N4CCCC4)cc3)no2)CC1 | inactive: -0.103% [at 76.3 µM] | –
20 | CC(=O)N1CCC(=NNc2nc3ccccc3s2)CC1 | – | inconclusive: 6.31 µM [inhibitor, full curve]
21 | COc1ccc(C(Nc2ccccn2)c2c(NC(=O)c3ccco3)sc(C)c2C)cc1OC (centres undefined) | – | inconclusive: 35.5 µM [inhibitor, partial curve]
22 | COc1ccccc1NC(=S)NNC(=O)c1nn(C)cc1Cl | – | inconclusive: 19.8 µM [inhibitor, partial curve]
23 | CC1=Nc2ccccc2N=C(NC(=O)CN2CCN(c3ccc(F)cc3)CC2)C1c1ccccc1 (centres undefined) | – | inconclusive: 4.47 µM [inhibitor, full curve]

Row | SMILES | activity change, negative = inhibition | Potency
24 | O=C(c1ccc([N+](=O)[O-])cc1)N1CCN(c2cccc3[nH]ccc23)CC1 | – | inconclusive: 14.1 µM [inhibitor, partial curve]
25 | COc1ccc(CCNC(=O)c2cc3c(C)nccc3[nH]c2=O)cc1OC | – | inconclusive: 11.2 µM [inhibitor, single point]
26 | CC(C)CC(=O)NC(=S)NNC(=O)c1ccc([N+](=O)[O-])cc1 | – | inconclusive: 44.7 µM [inhibitor, partial curve]
27 | CSc1nc(-c2ccccc2Cl)nc2c1Cc1c(CO)cnc(C)c1O2 | inactive: 11.9% [at 76.3 µM] | –
28 | COc1cc(SC)ccc1C(=O)N1CCN(c2ccccc2)CC1 | inactive: -12.3% | –
29 | O=C(CC1Oc2ccccc2NC1=O)NC1CCCC1 (centres undefined) | – | inconclusive: 79.4 µM [inhibitor, partial curve]
30 | Cc1nc(C(F)(F)F)c(C(=O)NC(=O)Nc2ccc(OC(F)(F)F)cc2)s1 | – | inconclusive: 39.5 µM [inhibitor, single point]
31 | CC(/C=C/c1ccco1)=N\NC(=O)c1cc(Cl)ccc1O | – | inconclusive: 50.1 µM [inhibitor, single point]
32 | C=CC[n+]1c(-c2ccc(C)cc2)csc1Nc1ccc(NC(C)=O)cc1 | inactive: 0.174% | –
33 | COc1cc(/C=N/n2c(-c3cc(C)[nH]n3)n[nH]c2=S)cc(OC)c1O | – | inconclusive: 15.8 µM [inhibitor, partial curve]
34 | COc1ccccc1OCc1n[nH]c(=S)n1Cc1ccccc1 | – | inconclusive: 25.1 µM [inhibitor, single point]
35 | CCN1CCc2nc(NC(=O)CC(c3ccccc3)c3ccccc3)sc2C1 | – | inconclusive: 14 µM [activator, partial curve]
36 | CC(Oc1ccc(Cl)cc1Cl)C(=O)NC1=NN(c2ccccc2)C(=O)C1 (centres undefined) | – | inconclusive: 35.5 µM [inhibitor, single point]
37 | CCC1=NN(C(=O)c2cccc(Br)c2)C(O)(c2ccc(Br)cc2)C1 (centres undefined) | – | inconclusive: 15.8 µM [inhibitor, partial curve]
38 | CCCN(CCC)S(=O)(=O)c1ccc(C(=O)NCc2n[nH]c(=S)n2-c2ccc(Cl)c(Cl)c2)cc1 | – | inconclusive: 31.6 µM [inhibitor, partial curve]
39 | COc1ccc(O)c(C2NC(CC(C)C)(C(=O)O)C3C(=O)N(Cc4ccccc4)C(=O)C23)c1 (centres undefined) | – | inconclusive: 25.1 µM [inhibitor, partial curve]
40 | CCOC(=O)C1=NN(C(=O)c2ccc(OC)cc2)C(O)(c2ccc(Cl)cc2)C1 (centres undefined) | – | inconclusive: 15.8 µM [inhibitor, partial curve]
41 | COC(=O)c1c(NC(=O)CCc2ccc(C)o2)sc(C)c1C | inactive: -4.34% | –
42 | CCc1nc(NCCN)c(C#N)c2c1CSC(C)(C)C2 | – | inconclusive: 3.16 µM [inhibitor, partial curve]
43 | c1cncc(Nc2nc(-c3cccs3)cs2)c1 | – | inconclusive: 9.92 µM [inhibitor, partial curve]
44 | O=C(CCc1ccccc1)NNC(=O)c1ccc(Br)cc1 | inactive: 10.6% | –
45 | C1=CC2c3ccccc3NC(c3ccncc3)C2C1 (centres undefined) | inactive: -0.387% | –
46 | Cc1nc2ncccn2c1-c1csc(Nc2ccc(N(C)C)cc2)n1 | – | inconclusive: 15.8 µM [inhibitor, partial curve]

Row | SMILES | activity change, negative = inhibition | Potency
47 | O=C(NN=C1CCCCCC1)C(=O)Nc1cccc(Br)c1 | – | inconclusive: 28.2 µM [inhibitor, partial curve]
48 | CCSc1ccccc1C(=O)Nc1cc(OC)c(OC)c(OC)c1 | inactive: 8.39% | –
49 | COc1cc2c3nnc(-c4ccccc4)c-3cn(Cc3ccccc3F)c2cc1OC | inactive: -4.96% | –
50 | COc1ccc(NC(=O)N(C2CCCCC2)C(C)c2cccnc2)c(OC)c1 (centres undefined) | – | inconclusive: 17.8 µM [inhibitor, partial curve]
51 | CCOC(=O)c1ccc(NC(=S)NN)cc1 | – | inconclusive: 50.1 µM [inhibitor, single point]
52 | COc1cc(/C=C/c2nc3ccccc3s2)cc(OC)c1O | – | active: 17.6 µM
53 | CCC(C)(C)C1CCC(=NNc2nc3ccccc3[nH]2)CC1 (centres undefined) | – | inconclusive: 17.8 µM [inhibitor, partial curve]
54 | Cc1nc(NS(=O)(=O)c2ccccc2)sc1NC(=O)OC(C)C | – | active: 28 µM
55 | CCOc1cc(NC(=O)c2ccccc2C(=O)O)c(OCC)cc1NC(=O)c1ccccc1F | – | inconclusive: 35.5 µM [inhibitor, single point]
56 | CCn1cc(C(=O)NCCc2ccc(OC)c(OC)c2)c(=O)c2cc(S(=O)(=O)N3CCOCC3)ccc21 | inactive: -11% [at 76.3 µM] | –
57 | CS(=O)(=O)Nc1ccc(-c2n[nH]c(=S)n2-c2ccccc2)cc1 | – | inconclusive: 39.5 µM [inhibitor, single point]
58 | Cc1ccc(-n2nc(C)c3c2OC(N)=C(C#N)C3c2ccco2)cc1 (centres undefined) | – | inconclusive: 25.1 µM [inhibitor, partial curve, poor fit]
59 | CC1=C(C#N)S(=O)(=O)C(C#N)C(c2ccccc2)C1 (centres undefined) | – | inconclusive: 35.5 µM [inhibitor, single point]
60 | CN=c1scc(C)n1/N=C/c1ccc(O)cc1O | – | inconclusive: 17.6 µM [inhibitor, single point]
61 | CCC1(C)Cc2c(C#N)c(N)sc(=S)c2CO1 (centres undefined) | – | inconclusive: 39.8 µM [inhibitor, single point]
62 | CCOC(=O)c1c(/N=C/c2cc(OC)cc([N+](=O)[O-])c2O)sc(C)c1C | – | inconclusive: 15.7 µM [inhibitor, single point]
63 | CCOc1ccc(NC(=O)N2CCC(CN3CCC(C)CC3)CC2)cc1 | inactive: -2.85% [at 76.3 µM] | –
64 | S=C1SCN(Cc2cccnc2)CN1Cc1ccccc1 | – | inconclusive: 39.5 µM [inhibitor, single point]
65 | Cc1ccc(-c2nc(C#N)c(NCc3cccc4c3OCO4)o2)cc1 | – | inconclusive: 28.2 µM [inhibitor, partial curve]
66 | CCN(CC)c1ccc(/C=N/N2CCN(Cc3ccccc3)CC2)c(O)c1 | – | inconclusive: 8.91 µM [inhibitor, full curve]
67 | CCc1ccccc1NC(=S)NNC(=O)c1ccccc1Cl | – | inconclusive: 25.1 µM [inhibitor, single point]
68 | COCCn1c(N)c(S(=O)(=O)c2cccs2)c2nc3ccccc3nc21 | inactive: 0.901% | –
69 | COc1cccc(-n2ccn(CC(=O)Nc3ccccc3F)c(=O)c2=O)c1 | – | inconclusive: 11.2 µM [inhibitor, partial curve]
